Results from article PMC4336329 (PLoS ONE, 2015).
Out of some 310,000 compounds screened, about 14,000 (4.5%) showed an effect of 50% or more. Effects have a minus sign here. This is one part of the list.

biological target: human ether-à-go-go-related gene (hERG) potassium channel (human, UniProt Q12809); assay: primary screen, population patch clamp on CHO cells stably expressing hERG
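Also: peak tail current of the secondary pulse compared with the same well before compound.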

Sequence of human ether-à-go-go-related gene (hERG) potassium channel (Q12809 whole entry, looked up): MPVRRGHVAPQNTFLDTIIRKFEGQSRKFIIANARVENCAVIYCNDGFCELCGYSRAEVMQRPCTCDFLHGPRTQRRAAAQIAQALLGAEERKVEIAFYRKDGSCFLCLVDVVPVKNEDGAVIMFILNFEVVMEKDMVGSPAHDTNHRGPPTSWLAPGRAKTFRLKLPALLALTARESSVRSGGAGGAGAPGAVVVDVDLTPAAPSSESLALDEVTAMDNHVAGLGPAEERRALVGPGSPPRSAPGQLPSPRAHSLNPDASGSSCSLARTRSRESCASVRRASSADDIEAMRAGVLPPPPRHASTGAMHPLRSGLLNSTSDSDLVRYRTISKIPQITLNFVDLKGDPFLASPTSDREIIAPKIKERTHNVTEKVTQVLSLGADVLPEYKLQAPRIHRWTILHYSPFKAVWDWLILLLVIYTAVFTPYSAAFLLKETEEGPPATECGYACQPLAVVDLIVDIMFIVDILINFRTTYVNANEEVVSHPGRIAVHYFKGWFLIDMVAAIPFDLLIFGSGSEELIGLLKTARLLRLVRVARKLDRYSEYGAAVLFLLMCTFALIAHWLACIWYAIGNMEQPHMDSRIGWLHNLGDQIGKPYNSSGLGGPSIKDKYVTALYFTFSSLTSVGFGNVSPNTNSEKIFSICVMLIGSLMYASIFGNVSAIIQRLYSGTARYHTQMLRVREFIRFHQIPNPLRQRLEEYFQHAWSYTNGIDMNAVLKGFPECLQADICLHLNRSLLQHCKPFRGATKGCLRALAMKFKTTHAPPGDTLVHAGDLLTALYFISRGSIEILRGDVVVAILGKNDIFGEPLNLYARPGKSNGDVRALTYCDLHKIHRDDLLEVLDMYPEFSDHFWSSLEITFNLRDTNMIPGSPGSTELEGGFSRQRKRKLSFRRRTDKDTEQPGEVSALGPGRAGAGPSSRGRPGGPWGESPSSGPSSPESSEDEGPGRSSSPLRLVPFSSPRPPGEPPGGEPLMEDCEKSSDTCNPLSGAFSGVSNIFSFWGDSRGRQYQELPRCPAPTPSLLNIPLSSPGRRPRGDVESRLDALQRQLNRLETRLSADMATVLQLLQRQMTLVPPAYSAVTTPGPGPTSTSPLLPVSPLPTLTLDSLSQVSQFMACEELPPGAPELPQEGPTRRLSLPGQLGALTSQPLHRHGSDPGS

Row | Compound | hERG current change (%, negative = inhibition) at 10uM [%]
1 | COc1ccc(OC)c(/C=N\Nc2nccs2)c1 | 13.2
2 | COc1ccc(-c2cc3nc(C)cc(NCCO)n3n2)cc1 | -33.6
3 | CCc1ccc(CN2CCCC(CNC(=O)c3cc(OC)cc(OC)c3)C2)cc1 (stereo not shown) | -69.9
4 | COc1ccc(C(=O)NC(C)c2ccc(-n3ccnc3)cc2)cc1[N+](=O)[O-] (stereo not shown) | -77.9
5 | Cl.Nc1csnc1C(=O)O | -7.4
6 | CCOC(=O)Cn1c(=NC(=O)C(C)(C)C)sc2cc([N+](=O)[O-])ccc21 | -6.47
7 | Cc1cccc(C)c1Nc1ncnc(N)c1[N+](=O)[O-] | 7.83
8 | CCCCn1c(N)c(N(CCC(C)C)C(=O)C2CC(=O)N(c3cccc(SC)c3)C2)c(=O)[nH]c1=O (stereo not shown) | -0.933
9 | CCCCn1cnc2c1c(=O)n(C)c(=O)n2C | 9.21
10 | COC(=O)c1ccccc1N(Cc1ccccc1)S(C)(=O)=O | 9.77
11 | CC1=NOC(=O)/C1=C\c1ccc(-c2ccc(Br)cc2C(=O)O)o1 | 24.7
12 | Cc1cc(=O)n2nc(N3CCCC(C(=O)NCCc4ccc(Cl)cc4)C3)sc2n1 (stereo not shown) | -46.3
13 | CC(=O)Nc1ccc(SCC(=O)Nc2sccc2C#N)cc1 | 21.2
14 | CCC(CC)N1CCN(C(=O)c2cccc(Cl)c2)CC1.O=C(O)C(=O)O | -2.55
15 | O=C(NCc1ccc(N2CCCC2=O)cc1)Nc1cccc(Cl)c1 | -12.1
16 | COc1cccc(CNC(=O)CN2C(=O)CC(c3ccccc3)=Nc3ccccc32)c1 | -13
17 | COc1ccc(-n2c(CSc3nc(C)cc(C)n3)nnc2SCC(=O)Nc2nccs2)cc1 | -13.2
18 | Cc1c(NC(=O)CSCc2ccc(Cl)cc2Cl)cccc1C(=O)O | 4.41
19 | CN(C)CCOC(=O)C1(c2ccccc2)CCCC1.Cl | 1.62
20 | Cc1ccc(NC(=O)CSc2nc(N)c3c4c(sc3n2)CSC(C)(C)C4)cc1 | 14.2
21 | CC(=O)c1ccc(NC(=O)NC2CCCc3ccccc32)cc1 (stereo not shown) | -2.21
22 | O=C(O)c1cccnc1SCc1ccc([N+](=O)[O-])cc1 | 15.8

Row | Compound | hERG current change (%, negative = inhibition) at 10uM [%]
23 | Cl.Oc1ccc(Cl)cc1CNCc1cccc2ccccc12 | -6.46
24 | COCCN1Cc2cccc(C(=O)Nc3ccc(S(=O)(=O)N4CCCCC4)cc3)c2C1=O | -4.49
25 | CCOc1ccc(OCC(=O)NCc2n[nH]c(=O)c3ccccc23)cc1 | -2.6
26 | C=CCNC(=O)C1CC(=O)N(c2ccc(OCC(=O)Nc3c(C)cccc3C)cc2)C1 (stereo not shown) | 9.63
27 | CCOC(=O)N1CCN(C(=O)c2ccc(N(Cc3ccccc3Cl)S(C)(=O)=O)cc2)CC1 | -0.267
28 | CCN(CC)S(=O)(=O)c1ccc(C(C)NC(=O)Cc2c[nH]c3ccccc23)cc1 (stereo not shown) | 9.07
29 | Cc1ccccc1-n1cc(CNC(=O)CC2C(=O)NCCN2C/C=C/c2ccccc2)cn1 (stereo not shown) | -3.76
30 | CC(=O)c1ccc(OCC(=O)Nc2cccc(S(=O)(=O)N3CCCC3)c2)cc1 | -13.3
31 | c1ccc2c(c1)OCC(c1nnc3n1-c1ccccc1SC3)O2 (stereo not shown) | -34.2
32 | CN1CCN(S(=O)(=O)c2ccc(SCCOc3ccc(Cl)cc3)nc2)CC1 | 0.4
33 | O=C(NCc1ccccn1)Nc1ccccc1 | 26.6
34 | O=S(=O)(c1cc(F)ccc1F)N1CCC2(CC1)OCCN2S(=O)(=O)c1ccccc1 | -23.7
35 | COC(=O)c1cc(C(=O)Nc2cc(C)on2)cc([N+](=O)[O-])c1 | 16
36 | Cc1ccc([N+](=O)[O-])cc1NC1OC(CO)C(O)C1O (stereo not shown) | -2.95
37 | CCN1CCc2c(sc(NC(=O)c3ccc4ccccc4c3)c2C(N)=O)C1.Cl | 7.59
38 | CS(=O)(=O)N(CC(=O)O)c1cc(Cl)cc(Cl)c1 | 10.3
39 | COc1cccc(NC=C2C(=O)OC3(CCCCC3)OC2=O)c1 | -17.6
40 | Cc1ccc(NC(=O)NCC2CCN(Cc3cccc(Cl)c3)CC2)c(Cl)c1 | -59.8
41 | CSCCC(NC(N)=O)C(=O)N(C)CC(=O)Nc1cc(C)ccc1C (stereo not shown) | 3.1
42 | CC(C)(C)OC(=O)COc1cc(F)ccc1[N+](=O)[O-] | -3.54
43 | CC(NC(=O)c1ccccc1NS(C)(=O)=O)c1ccccc1 (stereo not shown) | -2.88
44 | COc1cc(OC)cc(C(=O)NCc2n[nH]c(=S)n2-c2ccccc2)c1 | 17.5

Row | Compound | hERG current change (%, negative = inhibition) at 10uM [%]
45 | Cn1cc(C(=O)N2CCN(c3cccc(Cl)c3)CC2)c(=O)c2cc(S(=O)(=O)N3CCOCC3)ccc21 | -17.6
46 | CCN1CCN(C(c2cc3cc4c(cc3[nH]c2=O)OCO4)c2nnnn2C(C)(C)CC)CC1 (stereo not shown) | -2.89
47 | Cc1ccc(-c2nnc(CSc3nnc(COc4cccc5ccccc45)n3-c3ccccc3)o2)cc1 | 1.54
48 | COc1ccc(S(=O)(=O)N2CCC(C(=O)Nc3nnc(CCN4CCCCC4)s3)CC2)cc1 | -1.1
49 | O=C(CSCc1cccc(Br)c1)N/N=C/c1ccc2c(c1)OCO2 | -12.6
50 | CCN(CC)CC(=O)Nc1ccc2c(c1)Nc1ccccc1CC2.Cl | -47.3
51 | CC(NC(=S)Nc1ccc(F)cc1)c1ccccc1 (stereo not shown) | 12.3
52 | CCOc1ccc(-c2noc(COC)n2)cc1OC | 2.88
53 | C=CCc1ccccc1OCC(O)CN(CC)CC.Cl (stereo not shown) | -30.5
54 | Cc1onc(-c2ccccc2Cl)c1C(=O)OCC(=O)Nc1ccc2c(c1)OCO2 | -6.65
55 | CCc1ccc(OCC(=O)N/N=C2\CC(=O)c3ccccc32)cc1 | -34
56 | Cc1ccc(N=C2NC(=O)/C(=C/c3cccnc3)S2)c(C)c1 | -22.8
57 | O=C(N/N=C/c1ccc(O)c(O)c1)NC12CC3CC(CC(C3)C1)C2 | -11.8
58 | Cc1ccc2nsnc2c1S(=O)(=O)N1CCOCC1 | 1.56
59 | O=C(NC(=S)Nc1ccccc1N1CCCC1)c1ccc(-c2cccc([N+](=O)[O-])c2)o1 | -26.7
60 | COc1ccc(NC(=O)NCC(C)CSc2ccc(C)cc2)c(OC)c1 (stereo not shown) | -9.87
61 | CN1C(=O)N2CN(C3CCCCC3)CN3C(=O)N(C)C1C23 (stereo not shown) | 9.88
62 | Cc1ccc(NC(=S)NCc2ccc3c(c2)cc(C)n3C)c(C)c1 | 31.3
63 | Cc1cccc(-n2ncc3c(NCc4ccccc4)ncnc32)c1 | 12
64 | CCOC(=O)COc1ccc(-c2nnc(-c3ccccc3)o2)cc1 | -0.732
65 | CC1NCCC2(O)CCCCC12 (stereo not shown) | 29.4
66 | Cc1cc(Br)ccc1OCCN1CC(C)OC(C)C1.O=C(O)C(=O)O (stereo not shown) | -17.8

Row | Compound | hERG current change (%, negative = inhibition) at 10uM [%]
67 | CCCc1c(C(=O)N/N=C(\C)CCc2ccc(OC)cc2)nnn1-c1nonc1N | 21.9
68 | C/C(=N\OC(=O)c1ccc(F)cc1)c1sc(-c2ccccc2)nc1C | 10.7
69 | CSc1nnc(SCC(=O)Nc2ccc3[nH]c(=O)[nH]c3c2)s1 | 10
70 | O=[N+]([O-])c1ccc2c(c1)C(N1CCOCC1)/C(=C/COc1ccc(F)cc1)O2 (stereo not shown) | -26
71 | CC(C)CNC(=O)COc1cccc(C(=O)NCc2ccccc2)c1 | -0.402
72 | Cc1ccc(C)c(NS(=O)(=O)c2c(C)nc3sccn3c2=O)c1 | -1.53
73 | CN(C)S(=O)(=O)N1CCN(C(=O)N2CCOCC2)CC1 | 6.25
74 | CSc1ccc(Cl)c(C(=O)OCC(=O)N2CCOCC2)c1 | -1.27
75 | CCCc1c(O)nc(SCCN(CCC)CCC)[nH]c1=O.Cl | 0.0733
76 | CCOc1ccc(C2C(C#N)=C(N)SC(N)=C2C#N)c(OCC)c1 | 28.6
77 | COc1cccc(CNC(=O)CSc2nnc3c(n2)[nH]c2ccc(F)cc23)c1 | -30.3
78 | COC(=O)C(C(=O)OC)c1ccc(NC(=O)c2cccc(Cl)c2)cc1 | 11.3
79 | CCc1nnc(NC(=O)[C@@H](NC(=O)c2cccc(S(=O)(=O)N(CC)CC)c2)C(C)C)s1 | -3.11
80 | Cc1noc2ncc(C(=O)c3cc(F)ccc3O)cc12 | 2.42
81 | O=C(COc1ccccc1)Nc1cccc2c1CCCC2 | -7.72
82 | CCN1CCCC1CNC(=O)c1ccc(N2CCCC2=O)cc1 (stereo not shown) | -2.7
83 | CCOCCCNC(=O)/C(C#N)=C/c1ccc(C)o1 | 0.165
84 | O=C(CNC(=O)c1ccccc1Cl)Nc1ccc(Br)cc1C(=O)c1ccccc1 | -9.65
85 | Cc1cc(C)cc(NC(=O)CN2CCN(CCN=CC3=C(O)CC(C)(C)CC3=O)CC2)c1 | -49.9
86 | C=C1CCN([C@@H](CC(C)C)C(=O)Nc2ccc(OC)cc2)S(=O)(=O)c2ccccc21 | -10.7
87 | O=C(C1CCN(S(=O)(=O)N2CCOCC2)CC1)N1CCN(c2ccccc2)CC1 | -7.42
88 | C[C@@H]1C=C[C@](Cc2ccccc2)(C(=O)NCCc2c[nH]c3ccccc23)N1C(=O)c1ccccc1 | -7.94
